The values below come from the supplement of paper PMC4967469.

The IC50 is the point on the concentration scale where inhibition reaches its midpoint.

Holding throughout (test): Viability of human cancer cell lines after 72 h of drug (GDSC screen)
Compound in assay [1]: COCC(=O)NC/C=C/c1ccc2ncnc(Nc3ccc(Oc4ccc(C)nc4)c(C)c3)c2c1 [CP724714]
To be noted: top dose 10.24 µM; top dose inferred. As to the method: (§1)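 Human cancer cell lines in 384-well plates, medium with 10% serum, drug for 72 h over a 256-fold dose range (nine 2-fold or five 4-fold steps up to the top dose). Adherent lines were fixed and stained with the nucleic acid dye Syto60, suspension lines read with resazurin; signal relative to control wells, capped at 0 and 100%. One two-parameter sigmoid per drug and line, fitted in a mixed model over all curves with the slope shared within a line.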

Compound in assay [2]: Cc1cnc(CNC(=O)c2c(=O)c3ccc(N4CCCN(C)CC4)nc3n3c2sc2ccccc23)cn1 [CX-5461]
To be noted: top dose 10.24 µM; top dose inferred. As for the experimental part:
as §1

Compound in assay [3]: COC1=CC(c2cc3ccccc3[nH]2)=N/C1=C\c1[nH]c(C)cc1C [Obatoclax mesylate]
The note with it: top dose 16 µM. As for the experimental part: as §1

Compound in assay [4]: Cc1cccc(Nc2nc(-c3ccncc3)cs2)c1 [STF-62247]
To be noted: top dose 10.24 µM; top dose inferred. As to the method: as §1

A lower IC50 marks a more sensitive line; where the fit passes the top or lowest dose, that dose stands as a limit. AUC sums up the same curve from the lowest dose to the 256-fold higher top dose: 1 means no effect, lower means more sensitive. For some assays here: Where the top dose is marked as inferred, it was derived from the fitted curves, not read from the paper.

Take KOSC-2 (head and neck, adherent): the AUC turned out to be 0.985 in assay [1], 0.967 in assay [2], 0.852 in assay [3] and 0.982 in assay [4]. Also, the IC50 in assay [1] is more than 10.2 µM; in assay [2], more than 10.2 µM; in assay [3] it was 13.2 µM; in assay [4], more than 10.2 µM.

In the case of KP-2 (pancreas, adherent), the AUC in assay [1] was found to be 0.948; in assay [2], 0.976; in assay [3], 0.239; in assay [4], 0.977. The half-maximal inhibitory concentration (IC50) is more than 10.2 µM in assay [1], more than 10.2 µM in assay [2], 0.164 µM in assay [3] and more than 10.2 µM in assay [4].

Consider KP-3 (pancreas, adherent), for which the AUC in assay [1] was determined as 0.984; in assay [2], 0.926; in assay [3], 0.356; in assay [4], 0.98. In addition, the IC50 was more than 10.2 µM in assay [1], more than 10.2 µM in assay [2], 0.369 µM in assay [3] and more than 10.2 µM in assay [4].

On to KP-4 (pancreas, adherent), for which the AUC is 0.987 in assay [1], 0.956 in assay [2], 0.454 in assay [3] and 0.988 in assay [4]. Further, the IC50 was more than 10.2 µM in assay [1], more than 10.2 µM in assay [2], 0.754 µM in assay [3] and more than 10.2 µM in assay [4].

Regarding KU-19-19 (bladder, adherent), the AUC amounted to 0.982 in assay [1], 0.987 in assay [2], 0.669 in assay [3] and 0.971 in assay [4]. Besides, the IC50 was more than 10.2 µM in assay [1], more than 10.2 µM in assay [2], 2.96 µM in assay [3] and more than 10.2 µM in assay [4].

As for KYM-1 (rhabdomyosarcoma, adherent), the AUC in assay [1] worked out at 0.989; in assay [2], 0.986; in assay [3], 0.27; in assay [4], 0.991. Further, the IC50 was more than 10.2 µM in assay [1], more than 10.2 µM in assay [2], 0.249 µM in assay [3] and more than 10.2 µM in assay [4].

Consider KYSE-50 (oesophagus, adherent), for which the AUC in assay [1] came out at 0.952; in assay [2] it was 0.949; in assay [3] it was 0.024; in assay [4], 0.985. Further, the IC50 was more than 10.2 µM in assay [1], more than 10.2 µM in assay [2], less than 0.0625 µM in assay [3] and more than 10.2 µM in assay [4].

For the cell line KYSE-70 (oesophagus, adherent), the AUC was found to be 0.97 in assay [1], 0.978 in assay [2], 0.179 in assay [3] and 0.987 in assay [4]. For the same cell line, the IC50 in assay [1] is more than 10.2 µM; in assay [2], more than 10.2 µM; in assay [3] it was 0.0965 µM; in assay [4], more than 10.2 µM.

On to KYSE-140 (oesophagus, adherent), for which the AUC in assay [1] was 0.952; in assay [2], 0.984; in assay [3], 0.072; in assay [4], 0.979. In addition, the IC50 in assay [1] is more than 10.2 µM; in assay [2], more than 10.2 µM; in assay [3], less than 0.0625 µM; in assay [4], more than 10.2 µM.

Take KYSE-150 (oesophagus, adherent): the AUC was 0.985 in assay [1], 0.956 in assay [2], 0.175 in assay [3] and 0.989 in assay [4]. Besides, the concentration for half-maximal inhibition (IC50) was more than 10.2 µM in assay [1], more than 10.2 µM in assay [2], 0.11 µM in assay [3] and more than 10.2 µM in assay [4].

With KYSE-180 (oesophagus, adherent), the AUC in assay [1] came out at 0.967; in assay [2], 0.788; in assay [3], 0.152; in assay [4], 0.942. Besides, the half-maximal inhibitory concentration (IC50) in assay [1] was more than 10.2 µM; in assay [2], 4.26 µM; in assay [3] it was 0.0897 µM; in assay [4], more than 10.2 µM.

With KYSE-220 (oesophagus, adherent), the AUC is 0.964 in assay [1], 0.964 in assay [2], 0.27 in assay [3] and 0.985 in assay [4]. The IC50 in assay [1] was more than 10.2 µM; in assay [2], more than 10.2 µM; in assay [3], 0.213 µM; in assay [4], more than 10.2 µM.

Consider KYSE-270 (oesophagus, adherent), for which the AUC in assay [1] stood at 0.976; in assay [2] it was 0.991; in assay [3], 0.078; in assay [4] it was 0.987. The concentration for half-maximal inhibition (IC50) is more than 10.2 µM in assay [1], more than 10.2 µM in assay [2], less than 0.0625 µM in assay [3] and more than 10.2 µM in assay [4].

For KYSE-410 (oesophagus, adherent), the AUC in assay [1] is 0.916; in assay [2], 0.862; in assay [3], 0.18; in assay [4], 0.985. Also, the IC50 is more than 10.2 µM in assay [1], 9.75 µM in assay [2], 0.1 µM in assay [3] and more than 10.2 µM in assay [4].

As for KYSE-450 (oesophagus, adherent), the AUC in assay [1] was 0.897; in assay [2], 0.566; in assay [3] it was 0.035; in assay [4], 0.982. Further, the half-maximal inhibitory concentration (IC50) in assay [1] was more than 10.2 µM; in assay [2], 0.958 µM; in assay [3] it was less than 0.0625 µM; in assay [4], more than 10.2 µM.

KYSE-510 (oesophagus, adherent): the AUC in assay [1] was determined as 0.989; in assay [2], 0.939; in assay [3], 0.023; in assay [4] it was 0.992. Also, the IC50 in assay [1] was more than 10.2 µM; in assay [2] it was more than 10.2 µM; in assay [3] it was less than 0.0625 µM; in assay [4], more than 10.2 µM.
